Data on 10 compounds can be found in the supplement of paper PMC11880418.

Structures can show the parent of a compound that is named as a salt. The list shows a part of the results. The data scatter; read single values as rough.

Common to all, as to assay: ALDHbr (CSC) cell proportion score relative to DMSO vehicle (ratio to DMSO); breast (SUM159) / gastric (MKN45) / pancreatic (PANC1) / colon cancer lines; ALDHbr cells have high ALDH activity and are rich in cancer stem cells (CSC); higher = more CSC (ALDHbr) cells remaining
Holding throughout (settings): 10 µM; 72 h

The test system of assay [1] is MKN45.
In assay [2] the test system is PANC1.
Assay [3] concerns SUM159.
The subject of assay [4] is T84.
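Further: High-content imaging of ALDEFLUOR-stained cells with Hoechst-labelled nuclei in 384-well plates, triplicate wells, scored as Z-score against 0.1% DMSO vehicle, negative meaning fewer ALDHbr cells.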

Turning to `COC(=O)C1=C(C)NC(C)=C(C(=O)OC2CCCN(Cc3ccccc3)C2)C1c1cccc([N+](=O)[O-])c1` (stereo not given) [Benidipine hydrochloride], the ALDHbr in assay [1] stood at 0.77; in assay [2] it was 1.06; in assay [3], 0.408; in assay [4], 0.622.
The matching figures for `CCN[C@H]1C[C@H](C)S(=O)(=O)c2sc(S(N)(=O)=O)cc21` [Dorzolamide hydrochloride]: 1.06, 0.892, 0.938 and 1.02.
Take `CNS(=O)(=O)Cc1ccc2[nH]cc(CCN(C)C)c2c1` [Sumatriptan succinate]: the ALDHbr came out at 1.05 in assay [1], 0.938 in assay [2], 0.921 in assay [3] and 0.9 in assay [4].
The matching figures for `Nc1nc2n[nH]nc2c(=O)[nH]1` [Azaguanine-8]: 0.596, 0.427, 0.82 and 0.528.
For `CCN1CCN(c2cc3c(cc2F)c(=O)c(C(=O)O)cn3C2CC2)CC1` [Enrofloxacin], in that order: 1.28, 0.89, 0.984 and 0.956.
For `CC(=O)c1ccc2c(c1)N(CCCN(C)C)c1ccccc1S2` [Acetopromazine maleate salt], in that order: 1.22, 0.698, 0.765 and 0.624.
Take `COc1ccccc1OCCNCC(O)COc1cccc2[nH]c3ccccc3c12` (stereo not given) [Carvedilol]: the ALDHbr is 1.55 in assay [1], 0.848 in assay [2], 0.749 in assay [3] and 0.474 in assay [4].
For `NC(=O)c1cnccn1` [Pyrazinamide], in that order: 1.01, 1.04, 1.07 and 1.01.
For `CNCCc1ccccn1` [Betahistine mesylate], in that order: 1.06, 0.977, 0.971 and 1.02.
The matching figures for `CC(C)NCC(O)c1ccc(O)c(O)c1` (single isomer, unassigned; (+)) [(+)-Isoproterenol (+)-bitartrate salt]: 1.06, 0.795, 2.22 and 0.857.
